Out of some 45,000 compounds screened, about 200 (0.44%) were called active. Inconclusive results (about 7%) are left out. Calls come from the whole dose curve; as a rule, active = well fitted activation curve with a large enough effect; inconclusive = small, poorly fitted or top-dose-only effect; inactive = no such curve, though single readings can be large or run the other way. Some of the results follow.
assay: qHTS of TDP-43 Inhibitors: NCGC Sytravon Library Screen; conditions: yeast TDP-43 toxicity rescue, BacTiter-Glo growth, 24 h; series mostly up to 46.1 µM; growth rescue (activation): at the top concentration; note: 0% is about no effect; nearly all actives have a fitted effect of over 55% in size
Procedure, shortened: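 TDP-43-expressing yeast, pregrown in raffinose, seeded at OD600 0.02 in galactose medium with compound for 24 hr at 30 deg C. Growth read by BacTiter-Glo luminescence, so rescue of toxicity appears as activation.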

| SMILES | growth rescue (activation) |
| --- | --- |
| COc1cc(/C(C)=N/NC(=S)NC(C)C)cc(OC)c1OC | inactive: -6.6% |
| CCOC(=O)c1ccccc1NC(=O)COC(=O)C(Cc1c[nH]c2ccccc12)NC(C)=O (stereo unspecified) | inactive: 12.6% |
| COc1ccc(S(N)(=O)=O)cc1C(=O)OCC(=O)Nc1sccc1C#N | inactive: 16.1% |
| CCN(CC)S(=O)(=O)c1ccc(OC)c(NC(=O)Cn2cnc3c2c(=O)n(C)c(=O)n3C)c1 | inactive: -17% |
| Cc1nn(-c2ccccc2)c(C)c1/C=N/NC(=O)c1cc(-c2cccc3ccccc23)n[nH]1 | inactive: 12.4% |
| COc1ccccc1-c1nnc(SCC(=O)Nc2ccc(N3CCOCC3)cc2)n1N | inactive: 13.7% |
| CCn1nc(C)c(CNC(=O)C2CCC(=O)N(Cc3cccc(F)c3)C2)c1C (stereo unspecified) | inactive: 2.15% |
| Cc1nc2ccc(NC(=S)N3CCOCC3)cc2nc1C | inactive: -16.3% |
| COc1ccc(C(=O)NNC(=O)CSc2nnc(C)n2C)cc1 | inactive: -5.35% |
| COc1ccc(N(CC(=O)NN=C2CCN(C)CC2)S(=O)(=O)c2ccc(NC(C)=O)cc2)cc1 | inactive: 25.1% |
| O=C(c1ccco1)N1CCN(S(=O)(=O)/C=C/c2ccccc2)CC1 | inactive: 13.2% |
| CC(=O)Nc1ccc(NC(=O)C2CCCN2C(=O)NC2CCCCC2)cc1 (stereo unspecified) | inactive: 13.3% |
| CCCn1c(SCC(=O)NC)nc2sc3c(c2c1=O)CCC3 | inactive: 5.33% |
| O=c1[nH]c(C2CCN(S(=O)(=O)c3ccc4c(c3)OCCO4)CC2)nc2c1nnn2Cc1cccc(F)c1 | inactive: -6% |
| COc1ccc(NC(=O)c2cc(C)no2)cc1Cl | inactive: -7.48% |
| CCc1ccccc1NC(=O)c1ccc(-c2csc(C)n2)cc1 | inactive: 13.4% |
| Cc1cccc(-n2c(=O)c3c4c(sc3n3c(=S)[nH]nc23)CCC4)c1 | inactive: 7.41% |
| Cc1ccc(-n2c(SCC(N)=O)nc(O)cc2=O)cc1 | inactive: 8.69% |
| N#Cc1ccc(N2C(=O)[C@@H]3C(C(=O)C(c4ccccc4)c4ccccc4)=NN[C@@H]3C2=O)cc1 | inactive: -34.6% |
| COc1ccc(C(C)C)cc1S(=O)(=O)Nc1ncn[nH]1 | inactive: -1.53% |
| CCC(C)(C)c1ccc(OC(=O)c2cccnc2Cl)cc1 | inactive: 13.5% |
| O=C(N/N=C/c1ccsc1)c1ccccn1 | inactive: -3.65% |
| Cc1cc(C)cc(OCC(=O)NNC(=O)c2cc3ccccc3o2)c1 | inactive: 17.7% |

| SMILES | growth rescue (activation) |
| --- | --- |
| CC1CCCCC1NC(=O)/C=C/c1nc2ccccc2s1 (stereo unspecified) | inactive: 11.2% |
| CN1C(=O)S/C(=C\c2ccccc2OCc2ccc(C(=O)O)cc2)C1=O | inactive: -15.2% |
| O=C(c1ccco1)N(CCC(c1ccccc1)c1ccco1)Cc1ccccc1 (stereo unspecified) | inactive: -3.29% |
| O=C(CNC(=O)OCc1ccccc1)NC1CCCCCC1 | inactive: 8.07% |
| O=C(O)CC1SC(=Nc2ccc(O)cc2)NC1=O (stereo unspecified) | inactive: -7.2% |
| Cc1ccc(NC(=O)N2CCc3ccccc32)cc1C | inactive: 29.3% |
| O=C(O)C1C2CCC(O2)C1C(=O)Nc1ccc(Cl)cc1F (stereo unspecified) | inactive: -9.48% |
| CCN(Cc1ccccc1)C(=O)C1CCN(Cc2sccc2C)CC1 | inactive: 0.997% |
| COC(=O)c1cc(S(=O)(=O)n2nc(C)cc2C)c(Cl)cc1Cl | inactive: -4.12% |
| COc1ccc(C)cc1NCC(=O)Nc1ccc(C(C)(C)C)cc1 | inactive: -15.6% |
| Cc1ccc(NC(=O)c2cc(-c3ccc4c(c3)OCO4)on2)cc1C | inactive: -7.77% |
| COc1ccc(-n2ccc(=O)c(C(=O)O)n2)c(OC)c1 | inactive: 1.51% |
| CC1CC(=O)N(c2ccc(NCc3ccc(Cl)cc3)c([N+](=O)[O-])c2)C1=O (stereo unspecified) | inactive: 11% |
| CC(C)C(=O)N1CCC1(C)C(=O)Nc1ccc(-n2cccc2)cc1 (stereo unspecified) | inactive: 24.5% |
| O=C(NC1CCCCC1)C(=S)N1CCCC1 | inactive: 13.8% |
| O=C(COc1cccc2cccnc12)NCc1cccs1 | inactive: -0.652% |
| CCCCNC(=O)NCCN1CCOCC1 | inactive: 2.06% |
| Cc1ccc(NC(=O)c2ccc3c(=O)n4c(nc3c2)CCCCC4)cc1F | inactive: -5.18% |
| CCc1nn(CCCC(=O)NCc2ccc(OC)c(OC)c2)c(=O)c2cc3occc3n12 | inactive: 10.2% |
| Cc1onc(-c2ccccc2Cl)c1C(=O)NNC(=O)c1ccccc1F | inactive: 15.4% |
| COc1ccc(CCn2c(O)c(C=Nc3cccc(F)c3)c(=O)[nH]c2=O)cc1OC | inactive: 9.39% |
| COc1ccc(C(=O)OCCN2CCCCC2)cc1 | inactive: -2.45% |
| CC(=O)c1cccc(NC(=O)CN(C)Cc2ccc(OC(F)F)cc2)c1 | inactive: 20.5% |

| SMILES | growth rescue (activation) |
| --- | --- |
| CCOC(=O)CN(C(=O)COC(=O)C1=NNC(=O)CC1)c1ccc(F)cc1 | inactive: 2.15% |
| CC(=O)Nc1ccc(NC(=O)CCCNC(=O)c2ccc(Cl)cc2)cc1 | inactive: -0.355% |
| NC(=O)c1ccsc1NC(=O)CSc1n[nH]c(N)n1 | inactive: -0.844% |
| CCN(CC)c1ccc(C=C2C(=O)OC3(CCCCC3)OC2=O)cc1 | inactive: 4.79% |
| COc1ccc(S(=O)(=O)NCCN2CCOCC2)c(C)c1C | inactive: -8.63% |
| NCc1oc(-c2ccccc2)cc1C(=O)O | inactive: 2.53% |
| CCC(C)c1ccccc1NC(=O)COC(=O)c1ccc2[nH]c3c(c2c1)CCCC3 (stereo unspecified) | inactive: 15.4% |
| CC1CCCCN1CCNC(=O)C1CC(=O)N(c2ccc(F)c(Cl)c2)C1 (stereo unspecified) | inactive: 7.47% |
| COCCN1CCN(C(=O)c2ccc3oc(CCc4ccccc4)nc3c2)CC1 | inactive: 11.1% |
| CCCOc1nc2ccccc2cc1/C=C/C(=O)O | inactive: 18.6% |
| COc1ccnc(Oc2ccccc2)c1C(=O)N/C=N/OCc1ccccc1 | inactive: 23.9% |
| CCc1c(C(=O)N/N=C/c2ccco2)nnn1-c1nonc1N | inactive: 11% |
| CCOC(=O)c1sc(NC(=O)Nc2ccc(Cl)cc2)cc1C | inactive: 29.3% |
| Cn1ncc(Cl)c(Oc2ccc(C(C)(C)C)cc2)c1=O | inactive: 29.7% |
| Cn1cc(CCNCc2cn[nH]c2-c2ccc(-c3ccccc3)cc2)cn1 | inactive: 25.8% |
| O=C(CN(c1ccccn1)S(=O)(=O)c1ccc(F)cc1)Nc1ccccc1 | inactive: 9.41% |
| NNC(=S)NCc1cccnc1 | inactive: 14.1% |
| O=C(Nc1cccc(Cl)c1)c1ccc2c(c1)SC1=NS(=O)(=O)CCN12 | inactive: 16.1% |
| CC(C(=O)Nc1ccccc1)N(c1cccc(Cl)c1)S(C)(=O)=O (stereo unspecified) | inactive: -3.18% |
| O=C1Nc2ccc(S(=O)(=O)NCC3CCCO3)c3cccc1c23 (stereo unspecified) | inactive: -0.131% |
| CCc1ccccc1NC(=O)c1noc(C(C)C)c1[N+](=O)[O-] | inactive: 25.9% |
| O=C(Nc1ccccc1F)c1cc(S(=O)(=O)N2CCOCC2)cs1 | inactive: 20.1% |
| COc1nccnc1NS(=O)(=O)c1ccc(NC(=O)c2ccccc2Br)cc1 | inactive: 13.2% |

| SMILES | growth rescue (activation) |
| --- | --- |
| CC(C)c1nc(SCC(=O)NC(=O)NC(C)(C)C)n[nH]1 | inactive: 0.246% |
| O=C(COC(=O)C1CCN(S(=O)(=O)c2cccs2)CC1)Nc1ccccc1Br | inactive: 20.2% |
| C=CCn1c(C)c(C(C)=O)c(N2CCN(c3ccccc3)CC2)nc1=S | inactive: -7.72% |
| Nc1nc(-c2nonc2N)no1 | inactive: 12.8% |
| O=C(NC1CCN(C(=O)Nc2ccccc2Cl)CC1)c1ccco1 | inactive: 15.7% |
| CC1(C)CC(=O)C2=C(C1)Nc1ccccc1[S@]2=O | inactive: 7.8% |
| CCOC(=O)C1(Cc2ccccc2)CCN(Cc2cc(OC)c3c(c2)OCO3)CC1 | inactive: 17.8% |
| COc1ccccc1NC(=O)NCC1CC1(Cl)Cl (stereo unspecified) | inactive: -3.38% |
| N#CC1(C#N)CC(C=O)=C(N)C1(C#N)CC(=O)C12CC3CC(CC(C3)C1)C2 (stereo unspecified) | inactive: 22.3% |
| Fc1cccc2sc(Nc3nnc(-c4ccccc4)o3)nc12 | inactive: -39.6% |
| O=C(Nc1cccc([N+](=O)[O-])c1)C1CCN(C(=O)Cc2ccccc2)CC1 | inactive: 5.72% |
| COc1ccc(N(CC(O)CN2CCOCC2)S(=O)(=O)c2ccccc2)cc1 (stereo unspecified) | inactive: 1.61% |
| Cc1cc(C)n(C(=O)c2ccc(C)c(F)c2F)n1 | inactive: 11% |
| COc1ccc(CNC(=O)C(OC(=O)c2ccco2)c2ccc(F)cc2)cc1 (stereo unspecified) | inactive: 16.4% |
| CC(=O)c1cccc(NCC(=O)c2ccc(C)c([N+](=O)[O-])c2)c1 | inactive: -9.17% |
| CCCNC(=O)c1ccc(COc2ccc(C(C)(C)C)cc2)o1 | inactive: 4.13% |
| O=C(O)c1ccc(Cl)c(S(=O)(=O)Nc2ccccc2C(=O)Nc2ccc(Cl)cc2)c1 | inactive: -5.42% |
| O=C(COC(=O)c1ccc([N+](=O)[O-])o1)NC1CCS(=O)(=O)C1 (stereo unspecified) | inactive: -8.48% |
| N#CCC(=O)Nc1ccc(C(=O)OCC(=O)NC(=O)NCc2ccco2)cc1 | inactive: 6.25% |
| COc1cc(CC(=O)OCC(=O)NCc2cccs2)cc(OC)c1OC | inactive: 11.8% |
| Oc1ccc(C2=Nn3c(nnc3-c3ccco3)SC2)cc1O | inactive: 4.94% |
| CN(C)c1ccc(N=Nc2ccccc2C(=O)OCC(=O)Nc2ccccc2C(F)(F)F)cc1 | inactive: 0.02% |
| COCc1nnc(NC(=O)COc2ccc3c(c2)OCO3)s1 | inactive: 17.6% |

| SMILES | growth rescue (activation) |
| --- | --- |
| CN(c1cc(=O)n2ccccc2n1)C1CCCCC1 | inactive: -13.5% |
| Cc1oc(-c2cccs2)nc1CS(=O)CC(=O)NCc1ccc2c(c1)OCO2 (stereo unspecified) | inactive: -2.32% |
| COc1ccccc1C(O)(C(=O)N(NC(C)=O)c1ccccc1)c1ccccc1OC | inactive: 5.37% |
| O=C1NCCN(Cc2ccc(Cl)c(F)c2)C1CC(=O)N1CCCO1 (stereo unspecified) | inactive: 4.79% |
| O=c1[nH]c(CN2CCOCC2)nc2ccccc12 | inactive: 5.86% |
| CCOC(=O)c1[nH]c(C)c(/C(O)=C2\C(=O)C(=O)N(CCN3CCOCC3)C2c2ccco2)c1C (stereo unspecified) | inactive: 3.73% |
| Nc1nc(SCC(=O)Nc2cccc([N+](=O)[O-])c2)n[nH]1 | inactive: 19.5% |
| COCCCN=Cc1c(C)[nH]n(-c2ccc(Br)cc2Br)c1=O | inactive: -16.4% |
| O=C(Nc1ccccc1)c1cc(C2CCCCN2C(=O)CCCc2ccccc2)on1 (stereo unspecified) | inactive: 14.8% |
| Cc1ccc(-c2nn(-c3ccccc3)cc2CN(C)C(=O)CCC(=O)O)cc1C | inactive: 15.8% |
| CNS(=O)(=O)c1ccc(NC(=O)c2cncc(Br)c2)cc1 | inactive: -5.09% |
| Cc1ccnc(NS(=O)(=O)c2ccc(NC(=O)c3ccc4c(c3)OCCO4)cc2)n1 | inactive: -9.09% |
| O=C1NC2(CCCCC2)C(=O)N1CC(=O)N1CCc2ccccc21 | inactive: -28.1% |
| COc1cccc(CSCC(=O)NCCc2ccccc2)c1OC | inactive: 22.8% |
| CCOc1ccc(-c2cn(-c3cccc(SC)c3)c(=O)[nH]2)cc1 | inactive: 22.3% |
| COc1ccccc1NC(=O)Nc1ccc(F)c(F)c1 | inactive: 26.1% |
| NS(=O)(=O)c1ccc(NC(=S)NCc2ccccc2)cc1 | inactive: -1.81% |
| Cc1ncoc1C(=O)N1CCCC(C(=O)c2cccc(OC(C)C)c2)C1 (stereo unspecified) | inactive: 0.192% |
| C[N+]1(CC2COC3(CCCCC3)O2)CCCCC1 (stereo unspecified) | inactive: -30.8% |

Source: PubChem BioAssay AID1347073 (National Center for Advancing Translational Sciences (NCATS), 2019)
